# Reference: PubChem BioAssay (NCATS)
# The other results are listed elsewhere or left out. Further columns of the screen follow, without active or inactive calls. The list favours compounds with an active or inconclusive main result. Potencies come from curve fits of mixed quality, noted in brackets.
# Target: Phenylethanolamine N-methyltransferase (Homo sapiens) (UniProt P11086)
# Experiment: Confirmatory Screen for Target Class Profiling of Small Molecule Inhibitors of Methyltransferases (AID 1745852);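 further: inhibitor potency for blocking SAH production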
# Details: MTase-Glo luminescence, SAH detection, recombinant enzyme; measured here: PNMT inhibition potency
# Tags describe the fitted curve by direction and shape.
# Sequence of UniProt P11086 (P11086 whole entry, looked up): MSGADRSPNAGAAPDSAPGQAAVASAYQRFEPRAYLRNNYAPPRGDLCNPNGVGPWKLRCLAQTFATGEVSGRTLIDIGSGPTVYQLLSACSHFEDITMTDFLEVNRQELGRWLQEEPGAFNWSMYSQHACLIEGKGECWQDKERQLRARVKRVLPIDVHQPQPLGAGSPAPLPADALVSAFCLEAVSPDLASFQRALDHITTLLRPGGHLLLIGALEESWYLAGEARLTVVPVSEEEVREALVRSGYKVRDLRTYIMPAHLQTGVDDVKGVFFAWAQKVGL
row,Compound,IC50
1,O=C(CCc1ccccc1)N1CCNc2cnc(Nc3cccnc3)nc2C1,"35 µM [falling, partial curve]"
2,Cc1c(OCc2ccc(C(=O)O)o2)ccc2c(-c3ccccc3)cc(=O)oc12,"24.1 µM [falling, partial curve]"
3,CC(C)CCNC(=O)c1ccc2c(=O)[nH]c3c(C(=O)NC(C)C)sc(=S)n3c2c1,"24.1 µM [falling, single point]"
4,O=C(NCCc1ccccc1)c1ccc2c(=O)[nH]c3c(C(=O)NCC4CCCO4)sc(=S)n3c2c1 (stereo unspecified),"24.1 µM [falling, partial curve]"
5,N#Cc1cccc(-c2c[nH]c3ncnc(N4CCOCC4)c23)c1,"21.5 µM [falling, partial curve]"
6,O=C(O)c1ccc(Nc2nc3ccccc3n3cnnc23)cc1,"21.7 µM [falling, partial curve]"
7,N#C/C(=C\c1ccc(O)c(O)c1)C(=O)NCCCNC(=O)/C(C#N)=C/c1ccc(O)c(O)c1,"9.68 µM [falling, full curve]"
8,CC(C)(O)c1ccc2c(c1)ncn2-c1cccc(-c2ccccc2C#N)c1,"27.1 µM [falling, partial curve]"
9,CCOc1cc(OCC)c2c(-c3ccccc3)cc(=O)oc2c1,"12.1 µM [falling, partial curve]"
10,CCCNc1ccc2ncc(-c3ccc4[nH]ncc4c3)n2n1,"4.82 µM [falling, partial curve]"
11,O=C(NCc1ccc2c(c1)OCO2)c1sc(=S)n2c1[nH]c(=O)c1ccc(Cl)cc12,"21.5 µM [falling, partial curve]"
12,O=C(NCc1ccc2c(c1)OCO2)c1sc(=S)n2c1[nH]c(=O)c1cc(Cl)ccc12,"34.1 µM [falling, single point]"
13,O=C1c2ccccc2-c2nc3nnnn3nc21 (tested in a mixture with another compound),"0.0681 µM [falling, full curve]"
14,O=C(NCCc1ccc(Cl)cc1)c1ccc2c(=O)[nH]c3c(C(=O)NC4CCCC4)sc(=S)n3c2c1,"27.1 µM [falling, partial curve]"
15,COc1cc2ncnc(Nc3cccc(I)c3)c2cc1OC,"24.1 µM [falling, partial curve]"
16,COc1ccc(-c2nnn3c2nc(N2CCOCC2)c2ccccc23)cc1,"21.5 µM [falling, partial curve]"
17,COc1ccc(-c2nc3ccncc3[nH]2)cc1,"17.5 µM [falling, partial curve]"
18,c1nc(NCC2CCOC2)c2cc(-c3ccc4c(c3)OCO4)ccc2n1 (stereo unspecified),"19.2 µM [falling, partial curve]"
19,CCCc1cc2c(-c3ccccc3)cc(=O)oc2cc1OCc1ccc(C(=O)O)o1,"24.1 µM [falling, partial curve]"
20,CN(Cc1cccs1)c1ncnc2ccc(-c3ccc4c(c3)OCO4)cc12,"10.8 µM [falling, partial curve]"
21,O=C1NC(=O)C(c2c[nH]c3ccccc23)=C1c1c[nH]c2ccccc12,"24.3 µM [falling, partial curve]"
